In all, about 150,000 compounds went through this assay and about 540 (0.36%) showed an effect of 50% or more. The list shows a part of the results.

The subject of the assay is Plasmodium falciparum. Nature of the assay: Primary screen in NF54 nanoGlo assay, in single point, at 2uM, 72h; a lower Z score goes with more inhibition. The class given is functional, Erythrocyte. The conditions noted are these: timepoint 72 hour.
A word on the % Inhibition: it is the relative decrease from the control value, in per cent. As to `CC(C)c1cccc(-n2cc(O)c(C(=O)N3CC[C@@](O)(C(N)=O)C3)n2)c1`, the “% Inhibition” value is -5% and the Z score is 0.54.
With `Cn1cc(-c2ccc3c(c2)OCC[C@@H]2CC[C@H](O)[C@@H](CNC(=O)[C@@H]4CN(C5CCC5)CCN4C3=O)O2)cn1`, the “% Inhibition” value is recorded as 3% and the Z score is recorded as -0.38.
The like results for `CCc1nn(C)c(OC)c1CNC(=O)CCN1c2ccccc2CC[C@@H]1C` were, in that order, 4% and -0.59.
The like results for `COc1ccc(CC[C@H](C)NC(=O)Cc2csc(C)n2)cc1` were, in that order, 1% and -0.15.
Take `CO[C@H]1CCCN(C(=O)c2cn(CCCc3ccccc3)nn2)C1`: the “% Inhibition” value was -19% and the Z score turned out to be 1.67.
With `COc1ccc(NC(=O)CCC2CCN(C/C=C/c3ccccc3OC)CC2)c(OC)c1`, the “% Inhibition” value was -25% and the Z score amounted to 2.26.
The like results for `CC(C)Oc1cccc(C=C(Cc2ccccc2)c2nccc(=O)[nH]2)c1` were, in that order, -4% and 0.72.
The like results for `CC(C)Cn1nc(C(=O)NC2CCCC2)c2c1CCNC2` were, in that order, -5% and 0.66.
As for `CCCC[C@H](CC)C(=O)Nc1cc(S(C)(=O)=O)ccc1Cl`, the “% Inhibition” value is -3% and the Z score is 0.59.
The like results for `CCCN1CC2(CCN(c3cc(CC)nc(C)n3)CC2)C[C@H]1C(=O)O` were, in that order, 2% and -0.3.
The like results for `COc1ccc(Cc2nc([C@H]3CCOC3)n(CCO)n2)cc1OC` were, in that order, -1% and 0.17.
In the case of `O=C(c1ccno1)N1CC[C@H]2[C@H](CCC(=O)N2CCc2cccs2)C1`, the “% Inhibition” value worked out at 0% and the Z score came out at 0.03.
`Cc1n[nH]c(C)c1-c1ncccc1C(=O)N1CCCC1`: the “% Inhibition” value is reported as -6% and the Z score is 0.58.
In the case of `COc1nc(OC)nc(-c2c(Cl)cccc2OC)n1`, the “% Inhibition” value is listed as 9% and the Z score is given as -1.18.
The like results for `Cn1ncnc1NC(=O)c1cccc(-n2cccn2)n1` were, in that order, -8% and 0.9.
The like results for `Cc1cc(C)n(C)c(=O)c1C(=O)N(CCc1ccccc1)C[C@H]1CCCN(C)C1` were, in that order, -22% and 2.41.
The like results for `CCN(C1CCN(Cc2c(C)nc3ccccn23)CC1)S(C)(=O)=O` were, in that order, -8% and 1.13.
Turning to `Nc1c2c(-c3ccc(F)cc3)nc(N3CCN(CCc4ccccc4)CC3)nc2nn1-c1ccc(Cl)cc1`, the “% Inhibition” value is -10% and the Z score is on record as 1.17.
The like results for `CN(C)c1cccc(-c2nnc(NS(=O)(=O)c3ccoc3)o2)c1` were, in that order, -4% and 0.37.
`CC(C)OCCNc1nc(C2CC2)nc2[nH]ccc12`: the “% Inhibition” value was 3% and the Z score was -0.42.
The like results for `N[C@H]1CC[C@@H](C(=O)N(CCc2ccc(Cl)cc2)Cc2cccnc2)C1` were, in that order, 6% and -0.59.
The like results for `COC(=O)c1cc2n(n1)C[C@@](C)(C(=O)NC1CCC(C)CC1)N(Cc1ccccc1)C2=O` (stereo partly drawn) were, in that order, 15% and -1.74.
As to `O=C([C@H]1CCOC1)N1CCC(c2nccn2CC2CC2)CC1`, the “% Inhibition” value is reported as -6% and the Z score is 0.92.
The like results for `C[C@H]1CN(S(=O)(=O)c2ccc3c(c2)OCCCO3)C[C@]1(O)C1CC1` were, in that order, -7% and 1.03.
On to `C=C(C)CS(=O)(=O)N1CCC(c2ccnn2C)CC1`, for which the “% Inhibition” value came out at 5% and the Z score is on record as -0.63.
On to `O=C1C[C@@H](c2ccc(Cl)cc2)n2nc(NC(=O)c3cccnc3)nc2N1`, for which the “% Inhibition” value turned out to be 35% and the Z score is recorded as -3.94.
`CC(C)c1cc(N(C)CCC2(O)CCCC2)nc(N)n1`: the “% Inhibition” value is on record as -16% and the Z score is 1.7.
The like results for `O=C(N[C@H]1CCOc2ccccc21)c1ccc(S(=O)(=O)N2CCCC2)cc1` were, in that order, -17% and 2.17.
The like results for `COc1cc(CN2C(=O)C(C)C(C)C2=O)ccn1` (stereo not drawn) were, in that order, -12% and 1.96.
The like results for `Cc1ccc(Cc2nsc(NCc3ccc(F)cc3)n2)cc1` were, in that order, -16% and 1.53.
For the compound `Cn1ccc(NC(=O)C(c2ccccc2)c2ccccc2)n1`, the “% Inhibition” value is listed as -5% and the Z score is given as 0.68.
Consider `[O-][n+]1c(-c2ccc(Br)cc2)nc2ccc(Cl)cn21`, for which the “% Inhibition” value is reported as -12% and the Z score is listed as 2.37.
With `O=C(Nc1ccn(C2CCCCC2)n1)N1CCOCC1`, the “% Inhibition” value is -9% and the Z score is recorded as 1.42.
The like results for `O=C(CC[C@@H]1CNC(=O)[C@@H]2C[C@H](NCc3ccccn3)CN12)NCc1ccc(F)cc1` were, in that order, 26% and -2.91.
Take `O=C(NCCN1CCCCC1)c1csc(NC(=O)c2ccccc2F)n1`: the “% Inhibition” value came out at 6% and the Z score is -1.
Turning to `CC(C)c1nnc(-c2coc(S(=O)(=O)N3CCCC[C@@H]3C)c2)o1`, the “% Inhibition” value worked out at 4% and the Z score is -0.5.
The like results for `Cc1noc(CNC(=O)N2Cc3cc(Br)ccc3C[C@@H]2C)n1` were, in that order, -2% and 0.39.
In the case of `O=c1[nH]cccc1-c1cc(F)cc2cccnc12`, the “% Inhibition” value came out at 13% and the Z score is on record as -1.78.
The like results for `COc1ccc(C2C(C(=O)N3CCCCC3)c3ccccc3C(=O)N2C)cc1` (stereo not drawn) were, in that order, 3% and -0.47.
For `Cn1cc([C@@H]2CCCN2c2ccc(F)cn2)cn1`, the “% Inhibition” value is recorded as -12% and the Z score was 1.24.
With `CC(C(=O)NCC(F)(F)F)N1CCCC(c2ncc[nH]2)C1` (stereo not drawn), the “% Inhibition” value came out at 11% and the Z score is given as -1.33.
As to `N=C(NCc1ccccc1)NS(=O)(=O)c1cccs1`, the “% Inhibition” value is given as -2% and the Z score amounted to 0.4.
The like results for `CCCNC(=O)c1cn2c(n1)CC[C@H](c1cc(C(F)(F)F)cc(C(F)(F)F)c1)C2` were, in that order, -4% and 0.64.
The like results for `Cc1cc(-n2nc(C)c(C)c2C)ccn1` were, in that order, 4% and -0.7.
The like results for `O=C1c2ccc(-c3nc4ccccc4s3)cc2C(=O)N1Cc1ccccc1` were, in that order, 9% and -1.11.
Consider `CC(C)(CNC(=O)c1ccsn1)C1(O)CCCC1`, for which the “% Inhibition” value is recorded as -2% and the Z score amounted to 0.36.
The like results for `CCN(CCCN1C(=O)N[C@@](C)(C(C)C)C1=O)CC(F)(F)F` were, in that order, -1% and 0.12.
The like results for `O=C(Cc1ccsc1)N1CC[C@H](n2c(=O)[nH]c3cncnc32)C1` were, in that order, -10% and 0.98.
As for `OC(CCNC1CCN(C2CCOC2)CC1)c1ccc(Cl)c(Cl)c1` (stereo not drawn), the “% Inhibition” value is 2% and the Z score is given as -0.33.
Regarding `O=C(c1nc2ccccc2[nH]1)N1CCN(c2ccccc2F)CC1`, the “% Inhibition” value is reported as -1% and the Z score is 0.23.
Consider `Cc1ccc(CNC(=O)N2CCCCC[C@@H]2CN2CCCC2)cc1`, for which the “% Inhibition” value is -1% and the Z score is on record as 0.23.
The like results for `CN1N=C(C(=O)Nc2nc3c(s2)CCC3)CCC1=O` were, in that order, -3% and 0.53.
With `CCc1nccn1CC(=O)N1CCC[C@H]1c1nc2c(C)cccc2[nH]1`, the “% Inhibition” value was -6% and the Z score was determined as 1.11.
The like results for `Cc1ccc(F)c(-c2c(-c3ccccc3)ncn2CCc2nnn[nH]2)c1Cl` were, in that order, 1% and -0.12.
For the compound `CCS(=O)(=O)N1CCC(C(=O)OCC(C)(C)C)CC1`, the “% Inhibition” value was -12% and the Z score was determined as 1.81.
The like results for `CN(C)c1ccc2c(c1)CN(C(=O)C1CCOCC1)CCO2` were, in that order, 8% and -1.44.
With `Cc1ccc(S(=O)(=O)N(C)c2ccc(C(=O)NCc3cccnc3)cc2C)cc1`, the “% Inhibition” value is reported as -8% and the Z score came to 1.35.
The like results for `CC(=O)Nc1ccc(C(=O)N(Cc2ccccc2C)C2(C(=O)NCc3ccccc3)CCN(C(C)=O)CC2)cc1` were, in that order, -10% and 1.39.
Take `Cc1nc2ccnn2c(C)c1C(=O)N1CC[C@H](S(C)(=O)=O)C1`: the “% Inhibition” value was -9% and the Z score is listed as 1.62.
The like results for `NC(=O)c1nc(CNC(=O)[C@@H]2CCC[C@H](O)C2)no1` were, in that order, 0% and 0.07.
For the compound `CCc1ccc(C(=O)NC2=N[C@H](c3cccc(F)c3)CC(=O)N2)cc1`, the “% Inhibition” value is -15% and the Z score was 1.66.
For the compound `NC(=O)c1ccsc1NC(=O)CN1CCCC[C@@H]1CNC(=O)Nc1ccccc1`, the “% Inhibition” value is -7% and the Z score is 0.93.
For `Fc1ccc(Cl)cc1CN[C@H]1CCCc2cn[nH]c21`, the “% Inhibition” value was -11% and the Z score came to 1.24.
The like results for `COc1ccccc1/C=C/CN1CCC(Cc2nnc(CO)n2C)CC1` were, in that order, -10% and 1.44.
The like results for `CCN(C(=O)Nc1cccc2nn(C)nc12)[C@H]1COC[C@@H]1O` were, in that order, -10% and 1.78.
For the compound `O=C(CN1C(=O)COc2ccc(Cl)cc21)N1CCc2ccccc21`, the “% Inhibition” value is recorded as -8% and the Z score is 1.02.
The like results for `O=C(NCCc1c[nH]c2ccccc12)OCC1CC1` were, in that order, -13% and 1.65.
The like results for `COc1ccc(N2CCN(c3cc(C)nc(-c4ccc(Cl)cc4)n3)CC2)cc1` were, in that order, -4% and 0.47.
As for `CCc1nnc2n1C[C@@H](CNc1nc3ccccc3o1)CC2`, the “% Inhibition” value is given as -6% and the Z score came out at 0.98.
For `Cn1cnnc1[C@H]1CCCN(c2ncnc3ccccc23)C1`, the “% Inhibition” value is given as -7% and the Z score turned out to be 1.12.
The like results for `N#Cc1ccc(N[C@H]2CCCC[C@H]2CCO)nc1` were, in that order, -6% and 1.3.
The like results for `O=C([C@@H]1Cc2ccccc2S(=O)(=O)N1)N1CCC(n2cnnc2)CC1` were, in that order, 0% and 0.05.
As for `CC(=O)/C(=N/Nc1ccccc1)N1CCOCC1`, the “% Inhibition” value is listed as 7% and the Z score was -1.26.
The like results for `O=S(=O)(NC(c1ccccc1)c1ccccc1)c1ccc2c(c1)OCCO2` were, in that order, 2% and -0.21.
The like results for `CCCN(C)C[C@@H]1CC(F)(F)CN1C1CCN(S(=O)(=O)c2ccccc2)CC1` were, in that order, -6% and 1.12.
The like results for `CN1CCO[C@@H](C(=O)N2CCN(Cc3ccccc3)CC2)[C@@H]1c1ccccc1` were, in that order, -15% and 1.94.
On to `O=C(NCc1ccccc1F)[C@H]1CCCN(c2cnc3nccnc3c2)C1`, for which the “% Inhibition” value was -4% and the Z score was 0.79.
The like results for `O=C(O)Cc1c(-c2ccc3c(c2)OCCCO3)nc2ccccc2c1-c1ccccc1` were, in that order, 4% and -0.51.
As for `CCN(CC(=O)NCc1cccs1)Cc1ccccc1Cl`, the “% Inhibition” value is -20% and the Z score was 2.11.
Take `CN1[C@@H](CO)C[C@@H](CNCc2cnc(N3CCCC3)s2)[C@H]1c1ccccc1F`: the “% Inhibition” value was -15% and the Z score was found to be 2.02.
In the case of `COCCc1noc(C2(F)CCN(C(=O)c3cc(F)cc(F)c3)CC2)n1`, the “% Inhibition” value is -5% and the Z score came to 0.91.
Consider `CC(C)CNC(=O)CN1CC[C@H](CCO)C1`, for which the “% Inhibition” value is listed as -17% and the Z score is recorded as 1.53.
The like results for `CN(C)C1CCCC1Oc1ccccn1` (stereo not drawn) were, in that order, -5% and 0.65.
The like results for `CC(C(=O)N1CCCC1)N1CCCCC1Cn1cncn1` (stereo not drawn) were, in that order, 0% and -0.01.

These data come from ChEMBL document CHEMBL4888484, “Replenishing the malaria drug discovery pipeline: Screening and hit evaluation of the MMV Hit Generation Library 1 (HGL1) against asexual blood stage Plasmodium falciparum ,using a nano luciferase reporter read-out” (2022).
